According to the supplement of paper PMC8728848:
This is one part of the list.

Assays:
Assay in all cases: glycan array binding signal (z-score within array); higher = stronger binding
Conditions in all cases: glycan notation: IUPAC condensed, linker removed
Gal(a1-3)Gal = biological target: Gal(a1-3)Gal
Method in brief: (§1)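 From the Consortium for Functional Glycomics database, 3228 arrays were curated, keeping only those whose protein sequence was available. Binding is given as a within-array Z-score averaged across arrays sharing a protein sequence and across linkers. Negative Z-scores can be read as non-binding.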

Gal(a1-3)Gal(b1-3)GlcNAc = biological target: Gal(a1-3)Gal(b1-3)GlcNAc
Method in brief: as §1

[1] = biological target: Gal(a1-3)Gal(b1-3)GlcNAc(b1-2)Man(a1-3)[Gal(a1-3)Gal(b1-3)GlcNAc(b1-2)Man(a1-6)]Man(b1-4)GlcNAc(b1-4)GlcNAc
Method in brief: as §1

[2] = biological target: Gal(a1-3)Gal(b1-3)GlcNAc(b1-3)GalNAc
Method in brief: as §1

[3] = biological target: Gal(a1-3)Gal(b1-3)[Fuc(a1-4)]GlcNAc(b1-2)Man(a1-3)[Gal(a1-3)Gal(b1-3)[Fuc(a1-4)]GlcNAc(b1-2)Man(a1-6)]Man(b1-4)GlcNAc(b1-4)GlcNAc
Method in brief: as §1

Gal(a1-3)Gal(b1-4)Glc = biological target: Gal(a1-3)Gal(b1-4)Glc
Method in brief: as §1

Gal(a1-3)Gal(b1-4)GlcNAc = biological target: Gal(a1-3)Gal(b1-4)GlcNAc
Method in brief: as §1

[4] = biological target: Gal(a1-3)Gal(b1-4)GlcNAc(b1-3)GalNAc
Method in brief: as §1

[5] = biological target: Gal(a1-3)Gal(b1-4)[Fuc(a1-3)]GlcNAc
Method in brief: as §1

[6] = biological target: Gal(a1-3)Gal(b1-4)[Fuc(a1-3)]GlcNAc(b1-2)Man(a1-3)[Gal(a1-3)Gal(b1-4)[Fuc(a1-3)]GlcNAc(b1-2)Man(a1-6)]Man(b1-4)GlcNAc(b1-4)GlcNAc
Method in brief: as §1

Gal(a1-3)GalNAc = biological target: Gal(a1-3)GalNAc
Method in brief: as §1

[7] = biological target: Gal(a1-3)[Gal(a1-4)]Gal(b1-4)GlcNAc
Method in brief: as §1

[8] = biological target: Gal(a1-4)Gal(b1-3)GlcNAc(b1-2)Man(a1-3)[Gal(a1-4)Gal(b1-3)GlcNAc(b1-2)Man(a1-6)]Man(b1-4)GlcNAc(b1-4)GlcNAc
Method in brief: as §1

Gal(a1-4)Gal(b1-4)Glc = biological target: Gal(a1-4)Gal(b1-4)Glc
Method in brief: as §1

Gal(a1-4)Gal(b1-4)GlcNAc = biological target: Gal(a1-4)Gal(b1-4)GlcNAc
Method in brief: as §1

[9] = biological target: Gal(a1-4)Gal(b1-4)GlcNAc(b1-2)Man(a1-3)[Gal(a1-4)Gal(b1-4)GlcNAc(b1-2)Man(a1-6)]Man(b1-4)GlcNAc(b1-4)GlcNAc
Method in brief: as §1

[10] = biological target: Gal(a1-4)Gal(b1-4)GlcNAc(b1-3)Gal(b1-4)Glc
Method in brief: as §1

Gal(a1-4)GlcNAc = biological target: Gal(a1-4)GlcNAc
Method in brief: as §1

Gal(a1-6)Glc = biological target: Gal(a1-6)Glc
Method in brief: as §1

Gal(b1-2)Gal = biological target: Gal(b1-2)Gal
Method in brief: as §1

Gal(b1-3)Gal = biological target: Gal(b1-3)Gal
Method in brief: as §1

Gal(b1-3)Gal(b1-4)GlcNAc = biological target: Gal(b1-3)Gal(b1-4)GlcNAc
Method in brief: as §1

[11] = biological target: Gal(b1-3)Gal(b1-4)GlcNAc(b1-2)Man(a1-3)[Gal(b1-3)Gal(b1-4)GlcNAc(b1-2)Man(a1-6)]Man(b1-4)GlcNAc(b1-4)GlcNAc
Method in brief: as §1

Gal(b1-3)GalNAc = biological target: Gal(b1-3)GalNAc
Method in brief: as §1

[12] = biological target: Gal(b1-3)GalNAc(a1-3)[Fuc(a1-2)]Gal(b1-4)Glc
Method in brief: as §1

[13] = biological target: Gal(b1-3)GalNAc(a1-3)[Fuc(a1-2)]Gal(b1-4)GlcNAc
Method in brief: as §1

[14] = biological target: Gal(b1-3)GalNAc(b1-3)Gal(a1-4)Gal(b1-4)Glc
Method in brief: as §1

[15] = biological target: Gal(b1-3)GalNAc(b1-4)Gal(b1-4)Glc
Method in brief: as §1

[16] = biological target: Gal(b1-3)GalNAc(b1-4)[Neu5Ac(a2-3)]Gal(b1-4)Glc
Method in brief: as §1

Gal(b1-3)GlcNAc = biological target: Gal(b1-3)GlcNAc
Method in brief: as §1

[17] = biological target: Gal(b1-3)GlcNAc(a1-6)Gal(b1-4)GlcNAc
Method in brief: as §1

[18] = biological target: Gal(b1-3)GlcNAc(b1-2)Man(a1-3)[Gal(b1-3)GlcNAc(b1-2)Man(a1-6)]Man(b1-4)GlcNAc(b1-4)GlcNAc
Method in brief: as §1

[19] = biological target: Gal(b1-3)GlcNAc(b1-2)Man(a1-3)[Gal(b1-3)GlcNAc(b1-2)Man(a1-6)]Man(b1-4)GlcNAc(b1-4)[Fuc(a1-6)]GlcNAc
Method in brief: as §1

[20] = biological target: Gal(b1-3)GlcNAc(b1-2)[Gal(b1-3)GlcNAc(b1-6)]Man(a1-6)[Gal(b1-3)GlcNAc(b1-2)Man(a1-3)]Man(b1-4)GlcNAc(b1-4)GlcNAc
Method in brief: as §1

[21] = biological target: Gal(b1-3)GlcNAc(b1-3)Gal(b1-3)GlcNAc
Method in brief: as §1

[22] = biological target: Gal(b1-3)GlcNAc(b1-3)Gal(b1-4)Glc
Method in brief: as §1

[23] = biological target: Gal(b1-3)GlcNAc(b1-3)Gal(b1-4)GlcNAc
Method in brief: as §1

[24] = biological target: Gal(b1-3)GlcNAc(b1-3)Gal(b1-4)GlcNAc(b1-6)[Gal(b1-3)GlcNAc(b1-3)]Gal(b1-4)Glc
Method in brief: as §1

[25] = biological target: Gal(b1-3)GlcNAc(b1-3)Gal(b1-4)[Fuc(a1-3)]GlcNAc(b1-6)[Gal(b1-3)GlcNAc(b1-3)]Gal(b1-4)Glc
Method in brief: as §1

[26] = biological target: Gal(b1-3)GlcNAc(b1-3)GalNAc
Method in brief: as §1

[27] = biological target: Gal(b1-3)GlcNAc(b1-6)Gal(b1-4)GlcNAc
Method in brief: as §1

[28] = biological target: Gal(b1-3)[Fuc(a1-4)]GlcNAc
Method in brief: as §1

[29] = biological target: Gal(b1-3)[Fuc(a1-4)]GlcNAc(b1-2)Man(a1-3)[Gal(b1-3)[Fuc(a1-4)]GlcNAc(b1-2)Man(a1-6)]Man(b1-4)GlcNAc(b1-4)GlcNAc
Method in brief: as §1

[30] = biological target: Gal(b1-3)[Fuc(a1-4)]GlcNAc(b1-2)Man(a1-3)[Gal(b1-3)[Fuc(a1-4)]GlcNAc(b1-2)Man(a1-6)]Man(b1-4)GlcNAc(b1-4)[Fuc(a1-6)]GlcNAc
Method in brief: as §1

[31] = biological target: Gal(b1-3)[Fuc(a1-4)]GlcNAc(b1-3)Gal(b1-3)[Fuc(a1-4)]GlcNAc
Method in brief: as §1

B1: PpFlo3 (Pichia pastoris) (protein)
chain: MGSSHHHHHHSSGLVPRGSHMQESGNGTTSDTAYACDIGATPFDGFNATIYQYQASDDNSIQDPVFMSTGYLQRNQLHSTTGVTNPGFNIFTAGVATTTLYGIPNVNYQNMLLELKGYFRADASGNYGLSLRNIDDSAILFFGRETAFECCNENLIPLDEAPTDYSLFTIKEGEASTNPDSYTYTQYLEAGRYYPVRTFFANIRTRAVFNFTMTLPDGSELTDFQNYIFQFGALNQ
glycan array binding signal (z-score) (Gal(a1-3)Gal): -0.286 | glycan array binding signal (z-score) (Gal(a1-3)Gal(b1-3)GlcNAc): -0.287 | glycan array binding signal (z-score) [1]: -0.174 | glycan array binding signal (z-score) [2]: -0.168 | glycan array binding signal (z-score) [3]: -0.284 | glycan array binding signal (z-score) (Gal(a1-3)Gal(b1-4)Glc): -0.279 | glycan array binding signal (z-score) (Gal(a1-3)Gal(b1-4)GlcNAc): -0.277 | glycan array binding signal (z-score) [4]: -0.266 | glycan array binding signal (z-score) [5]: -0.278 | glycan array binding signal (z-score) [6]: 0.579 | glycan array binding signal (z-score) (Gal(a1-3)GalNAc): -0.251 | glycan array binding signal (z-score) [7]: -0.205 | glycan array binding signal (z-score) [8]: -0.288 | glycan array binding signal (z-score) (Gal(a1-4)Gal(b1-4)Glc): -0.281 | glycan array binding signal (z-score) (Gal(a1-4)Gal(b1-4)GlcNAc): -0.139 | glycan array binding signal (z-score) [9]: -0.096 | glycan array binding signal (z-score) [10]: -0.251 | glycan array binding signal (z-score) (Gal(a1-4)GlcNAc): 0.008 | glycan array binding signal (z-score) (Gal(a1-6)Glc): -0.271 | glycan array binding signal (z-score) (Gal(b1-2)Gal): -0.229 | glycan array binding signal (z-score) (Gal(b1-3)Gal): -0.234 | glycan array binding signal (z-score) (Gal(b1-3)Gal(b1-4)GlcNAc): -0.121 | glycan array binding signal (z-score) [11]: -0.29 | glycan array binding signal (z-score) (Gal(b1-3)GalNAc): -0.285 | glycan array binding signal (z-score) [12]: -0.246 | glycan array binding signal (z-score) [13]: -0.258 | glycan array binding signal (z-score) [14]: -0.286 | glycan array binding signal (z-score) [15]: 3.05 | glycan array binding signal (z-score) [16]: -0.142 | glycan array binding signal (z-score) (Gal(b1-3)GlcNAc): -0.201 | glycan array binding signal (z-score) [17]: -0.288 | glycan array binding signal (z-score) [18]: -0.277 | glycan array binding signal (z-score) [19]: -0.28 | glycan array binding signal (z-score) [20]: -0.273 | glycan array binding signal (z-score) [21]: -0.232 | glycan array binding signal (z-score) [22]: -0.116 | glycan array binding signal (z-score) [23]: -0.284 | glycan array binding signal (z-score) [24]: -0.255 | glycan array binding signal (z-score) [25]: -0.243 | glycan array binding signal (z-score) [26]: -0.296 | glycan array binding signal (z-score) [27]: -0.23 | glycan array binding signal (z-score) [28]: -0.173 | glycan array binding signal (z-score) [29]: -0.291 | glycan array binding signal (z-score) [30]: -0.296 | glycan array binding signal (z-score) [31]: -0.231
